94 sequences from the supplement of paper PMC3334620 can be followed below.

Whole data set: some 33,000 sequences, median “E-score (-0.5 to 0.5)” near -0.017, cut for the highest 2% near 0.3. The list shows a part of the results.

The target in this assay is T1, Sut1 (UniProt P53032).
T1 sequence: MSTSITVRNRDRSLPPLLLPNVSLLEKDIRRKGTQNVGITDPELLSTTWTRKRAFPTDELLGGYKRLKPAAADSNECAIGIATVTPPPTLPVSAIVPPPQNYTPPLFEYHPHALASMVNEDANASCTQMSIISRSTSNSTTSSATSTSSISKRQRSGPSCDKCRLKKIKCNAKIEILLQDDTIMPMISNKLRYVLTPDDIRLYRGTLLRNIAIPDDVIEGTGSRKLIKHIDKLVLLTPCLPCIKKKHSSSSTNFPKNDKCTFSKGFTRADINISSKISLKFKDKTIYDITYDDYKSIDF
The experiment in a line: PBM E-score (8-mer binding enrichment) (E-score (-0.5 to 0.5)); higher = stronger / more preferred TF binding; most listed sequences are background and not binding sites. The note with it: protein concentration: 200 nM; construct: GST-full length. Summed up:
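E-scores (a modified Wilcoxon-Mann-Whitney statistic) were assigned by the Universal PBM Analysis Suite to every ungapped eight-base word pooled with its reverse complement. The input came from universal all-10-mer Agilent arrays made double-stranded by primer extension and probed with GST-tagged yeast transcription factors at about 100-200 nM. Fluorescent anti-GST detected bound protein, and masliner normalised the scans.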
GACGGCTC: the “PBM E-score” value is -0.116.

Take CTGGAGCA: the “PBM E-score” value is -0.229.

Turning to CCTATCTC, the “PBM E-score” value was -0.0562.

In the case of TATGGCAA, the “PBM E-score” value is -0.0509.

As for AAATACCC, the “PBM E-score” value is 0.116.

As for CCTGATCC, the “PBM E-score” value is -0.0908.

With CGAGCTTA, the “PBM E-score” value was -0.0205.

As for GCCGTCAA, the “PBM E-score” value is -0.198.

For the sequence AAGCTTGT, the “PBM E-score” value is 0.0438.

Turning to GTTTGGCA, the “PBM E-score” value is -0.0612.

On to CTTCTGCC, for which the “PBM E-score” value is -0.214.

As for AAGGTTTG, the “PBM E-score” value amounted to 0.048.

In the case of AGCGACAA, the “PBM E-score” value is -0.0964.

For the sequence AAGTTCGA, the “PBM E-score” value was determined as 0.0625.

With CTACGTAA, the “PBM E-score” value is -0.0303.

On to ATGCCTGC, for which the “PBM E-score” value was -0.104.

On to CATACAGA, for which the “PBM E-score” value is 0.139.

Turning to ATGGAGGC, the “PBM E-score” value was -0.214.

For AGGGACTC, the “PBM E-score” value was -0.186.

Consider AGGGCGGA, for which the “PBM E-score” value was determined as 0.0562.

Turning to ACCAAGTG, the “PBM E-score” value is -0.101.

For the sequence GATTAAAC, the “PBM E-score” value was determined as 0.114.

In the case of ATGTCGTA, the “PBM E-score” value is -0.0172.

Regarding AGAACCTG, the “PBM E-score” value was -0.0844.

Regarding CGTGTCCA, the “PBM E-score” value is -0.221.

Take TAACGATA: the “PBM E-score” value came out at 0.221.

CCTGTCCC: the “PBM E-score” value is -0.184.

In the case of ATATTTCC, the “PBM E-score” value was 0.224.

Regarding AATGGTGT, the “PBM E-score” value worked out at 0.0953.

For the sequence TATGCCGA, the “PBM E-score” value worked out at 0.131.

With GTCGGCGA, the “PBM E-score” value was -0.0786.

In the case of TGATCGAA, the “PBM E-score” value is -0.131.

As for CAGCTCAG, the “PBM E-score” value was -0.262.

Regarding ATGGCATG, the “PBM E-score” value is -0.0543.

For the sequence AGCTAAAA, the “PBM E-score” value was found to be 0.0925.

In the case of ATTCGAAG, the “PBM E-score” value was 0.0299.

Take TAGAGCAA: the “PBM E-score” value is -0.133.

For ACAGCCTC, the “PBM E-score” value was -0.278.

CATTTTAG: the “PBM E-score” value turned out to be 0.226.

For the sequence CGCTCCAC, the “PBM E-score” value is -0.012.

As for TCTTTACA, the “PBM E-score” value came out at 0.167.

For the sequence CTTTTGTC, the “PBM E-score” value was 0.232.

Take TATCACAA: the “PBM E-score” value amounted to 0.0853.

For the sequence GCACCATA, the “PBM E-score” value is -0.225.

For CTGCCGTA, the “PBM E-score” value is -0.233.

As for GGTTCGTA, the “PBM E-score” value is 0.0442.

In the case of CCCTTCAC, the “PBM E-score” value is -0.253.

Turning to AAGGCTGT, the “PBM E-score” value is -0.106.

Turning to CGCGGTAA, the “PBM E-score” value came out at 0.0984.

With AGGGCCTC, the “PBM E-score” value was -0.0172.

GACCCTAC: the “PBM E-score” value is -0.16.

GGTCGAAA: the “PBM E-score” value was -0.14.

ATAGCGAT: the “PBM E-score” value was -0.0999.

GGTACTCA: the “PBM E-score” value was -0.00906.

AACTTGAC: the “PBM E-score” value was -0.00987.

In the case of CTACGGAA, the “PBM E-score” value was determined as 0.0897.

On to GCGCCGAC, for which the “PBM E-score” value is -0.092.

On to CCCTGCAC, for which the “PBM E-score” value is -0.232.

Turning to GCATTAGA, the “PBM E-score” value is 0.023.

For ATAAATCA, the “PBM E-score” value worked out at 0.102.

Take AGTGGAGC: the “PBM E-score” value was -0.0133.

Regarding AGGTGGCA, the “PBM E-score” value was -0.103.

For the sequence CGGAGCTA, the “PBM E-score” value was 0.385.

Regarding CCGGTGAA, the “PBM E-score” value came out at 0.102.

On to TATGCCAA, for which the “PBM E-score” value is -0.0127.

Turning to AAGGTCGT, the “PBM E-score” value is -0.135.

Take AGGGAGTC: the “PBM E-score” value is -0.22.

AAAGCCTC: the “PBM E-score” value was -0.0361.

With GAGAGTAC, the “PBM E-score” value is -0.0509.

For the sequence GATACCGA, the “PBM E-score” value is -0.0856.

Regarding GGATACCA, the “PBM E-score” value was -0.119.

AACACAGT: the “PBM E-score” value is 0.143.

Take TCCCATAA: the “PBM E-score” value is -0.0866.

In the case of TACCTCGA, the “PBM E-score” value is -0.0766.

Take CAGTAACG: the “PBM E-score” value came out at 0.125.

Consider ACAGTGGC, for which the “PBM E-score” value is -0.216.

Take CGTTCAAG: the “PBM E-score” value worked out at 0.0209.

Turning to GGGCTGGA, the “PBM E-score” value is -0.122.

GCAGAGGA: the “PBM E-score” value is -0.102.

Take CATCTACG: the “PBM E-score” value is -0.0146.

Regarding AAGAGATC, the “PBM E-score” value is -0.168.

Regarding AAACTCGC, the “PBM E-score” value worked out at 0.0303.

Regarding AGCCCCAC, the “PBM E-score” value was -0.101.

For the sequence CCGCTTCC, the “PBM E-score” value is 0.0265.

Regarding ATTTACCA, the “PBM E-score” value stood at 0.218.

For ACAGTTGC, the “PBM E-score” value was -0.0853.

With CCACTTAA, the “PBM E-score” value came out at 0.165.

With AGGTGCTC, the “PBM E-score” value is -0.33.

For the sequence AACCGGAG, the “PBM E-score” value stood at 0.43.

Take GGGGAGCA: the “PBM E-score” value is -0.344.

Take CTGCAAAG: the “PBM E-score” value is -0.243.

As for GCCGCCAC, the “PBM E-score” value is -0.352.

Consider CTATCCTA, for which the “PBM E-score” value was 0.00389.

As for CGGTAATC, the “PBM E-score” value was 0.0375.
